Source: PubChem BioAssay AID2060504 (Molecular Pharmacology Branch, DTP, NCI, 2025)
Not every entry of the source has a single result; some have several. This is not the full list of results. There may be further records. Values that stand side by side are repeats (runs, samples, wells, individuals or studies). Marks such as (2×) count equal records among those shown.

System: 636577-100-R-J1-PDC complex spheroid viability
Assay: Anticancer human tumor 636577-100-R-J1-PDC patient-derived endometrial adenocarcinoma cell line growth inhibition [GQUAD]
Details: for viability, T/C: stronger effect = lower value
Source text: DNA G-quadruplex Stabilizer Agents in Combinations in Complex Spheroids
A high-throughput screen of multi-cell type tumor spheroids was designed to identify active combinations of DNA G-quadruplex stabilizer agents and targeted small molecules. Complex spheroids include a stromal component modeled by human endothelial cells (HUVEC) and fibroblasts modeled by human mesenchymal stem cells (MSCs). The concentration ranges selected for each drug and investigational agent were based upon clinically achievable concentrations if the clinical Cmax of the agent was known.
Compounds. The drugs and investigational agents: pidnarulex (CX-5461; NSC782164), APTO-253 (NSC789042), BRACO-19 (NSC847499), peposertib (NSC802822), ceralasertib (NSC780249), elimusertib (NSC800525), camonsertib (NSC841442), AZD-1390 (NSC803789), olaparib (NSC753686), talazoparib (NSC767125), ART-558 (NSC835418), sotorasib (NSC818433), MRTX-1133 (NSC836407), SN-38 (NSC673596), topotecan (NSC609699), etoposide (NSC141540), doxorubicin (NSC123127), gemcitabine (NSC613327), 5-fluorouracil (NSC19893), paclitaxel (NSC125973), vemurafenib (NSC761431), panobinostat (NSC761190), R-306465 (JNJ-16241199; NSC773264), adavosertib (NSC754352), TP-3654 (NSC805149), carboplatin (NSC241240), KSQ-4279 (NSC840948), and staurosporine (NSC755774) were obtained from the National Cancer Institute (NCI) Developmental Therapeutics Program Chemical Repository (34). The FDA-approved anticancer drug set is available from the NCI Developmental Therapeutics Program. […] The stock solutions were prepared in dimethyl sulfoxide (DMSO, Sigma-Aldrich, St. Louis, MO, cat. D2650) at 800-fold the tested concentration and stored at -70 degrees C prior to their use. All drugs and investigational agents were tested over a range starting from a high concentration at or near the clinical Cmax and decreasing in half-log increments. If the clinical Cmax for an agent had not been determined, the highest concentration tested was 10 microM.
2.3 Cell Culture. All cells were maintained in an incubator at 37 degrees C and 5% CO2 with 95% humidity. The PDC lines were cultured according to standard operating procedures established by the NCI PDMR. All PDCs were thawed and cultured in Matrigel-coated flasks prepared with a working solution of 1X Ham's F-12 nutrient mix, without supplementation (Invitrogen, cat. 11765054), 100 U/mL penicillin-streptomycin (Invitrogen, cat. 15140122), and 2.5% Matrigel (Corning Inc., cat. 354248) for the first three passages. The 857933-349-R-J2-PDC line was cultured in 6C/Colon 1B media, which includes advanced DMEM/F-12 (Thermo Fisher Scientific, cat. 12634028), 10 mM HEPES (Thermo Fisher Scientific, cat. 15630080), 1X GlutaMAX supplement (Thermo Fisher Scientific, cat. 35050061), 0.1 mg/mL primocin (InvivoGen, cat. ant-pm-2), 10% defined fetal bovine serum, heat inactivated (HyClone Laboratories Inc., cat. SH30070.03HI), 50% L-WRN conditioned media (ATCC, cat. CRL-3276), 1.25 mM N-Acetyl-L-cysteine (Sigma-Aldrich, cat. A9165), 10 mM nicotinamide (Sigma-Aldrich, cat. N0636), 1X B-27 supplement (Thermo Fisher Scientific, cat. 17504044), 1X N-2 supplement (Thermo Fisher Scientific, cat. 17502048), 10 microM Y-27632 dihydrochloride (Tocris Bioscience, cat. 1254), and 50 ng/mL human EGF recombinant protein (Thermo Fisher Scientific, cat. PHG0311). The 485176-168-R4-J1-PDC line was cultured in Panc media, which includes all 6C/Colon 1B media components plus 100 ng/mL human FGF-10 (Thermo Fisher Scientific, cat. 100-26), 500 nM SB-431542 (Selleckchem, cat. S1067), and gastrin (Tocris, cat. 3006).
[…]
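Further: viability read after seven days of drug exposure.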
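Wherever viability, T/C is given: luminescence signal used as a proxy for viable cells; 100% = DMSO vehicle control wells.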

| Structure (SMILES) | viability, T/C (compound alone 0.1 µM) | viability, T/C (compound alone 0.316 µM) | IC50 (compound alone, run of 03/18/2024) | viability, T/C (compound alone 0.0316 µM) | viability, T/C (compound alone 10 µM) |
| --- | --- | --- | --- | --- | --- |
| CN(C)c1ccc(Nc2c3ccc(NC(=O)CCN4CCCC4)cc3nc3cc(NC(=O)CCN4CCCC4)ccc23)cc1 | 113, 93.2, 84.5, 87.3, 97.7, 103 (2×), 99.2, 101, 97.6, 90.5, 96.9% | 88.2, 80.3, 92.3, 97.1, 92.1, 90.9, 106, 89.7, 101, 89.5, 100, 88.8% | – | – | – |
| Cc1cnc(CNC(=O)c2c(=O)c3ccc(N4CCCN(C)CC4)nc3n3c2sc2ccccc23)cn1 | – | – | < 31.6 nM, 35 nM, 44.4 nM, 32.4 nM, 35.7 nM, 34.8 nM | – | – |
| Cc1[nH]c2ccc(F)cc2c1-c1nc2c3cccnc3c3ncccc3c2[nH]1 | 72.7, 92.6, 85.7, 78.2, 98, 119, 104, 103, 96.1% | 52.3, 69.2, 91.6, 107 (2×), 91.5, 116, 105, 97.6% | – | 62.4, 88.1, 97.6, 79.7, 96.3, 111, 106, 91.5, 93.2% | 58.6, 59.5, 50.7, 55.5, 48.7, 40, 30.4, 35.6, 38% |
